The structures appear in SMILES notation. The full ranking holds about 110,000 compounds; the median of “z-score” is about -0.1, and the highest 2% start at about 2. Some of the results follow.

The assay has as its target Metabotropic glutamate receptor 8 (Rattus norvegicus) (UniProt P70579). Description: mGluR8 Gi/Go-coupled signaling modulation – cell-based, rat, thallium flux, HTS, primary screen (AID 488969). The note with it: HEK293 rat mGluR8, GIRK (G protein-gated inwardly rectifying potassium channel) thallium flux, FluoZin2; at 10 µM; stronger effect = higher value; submaximal glutamate (EC20) added with thallium.
UniProt P70579, sequence (P70579 whole entry, looked up): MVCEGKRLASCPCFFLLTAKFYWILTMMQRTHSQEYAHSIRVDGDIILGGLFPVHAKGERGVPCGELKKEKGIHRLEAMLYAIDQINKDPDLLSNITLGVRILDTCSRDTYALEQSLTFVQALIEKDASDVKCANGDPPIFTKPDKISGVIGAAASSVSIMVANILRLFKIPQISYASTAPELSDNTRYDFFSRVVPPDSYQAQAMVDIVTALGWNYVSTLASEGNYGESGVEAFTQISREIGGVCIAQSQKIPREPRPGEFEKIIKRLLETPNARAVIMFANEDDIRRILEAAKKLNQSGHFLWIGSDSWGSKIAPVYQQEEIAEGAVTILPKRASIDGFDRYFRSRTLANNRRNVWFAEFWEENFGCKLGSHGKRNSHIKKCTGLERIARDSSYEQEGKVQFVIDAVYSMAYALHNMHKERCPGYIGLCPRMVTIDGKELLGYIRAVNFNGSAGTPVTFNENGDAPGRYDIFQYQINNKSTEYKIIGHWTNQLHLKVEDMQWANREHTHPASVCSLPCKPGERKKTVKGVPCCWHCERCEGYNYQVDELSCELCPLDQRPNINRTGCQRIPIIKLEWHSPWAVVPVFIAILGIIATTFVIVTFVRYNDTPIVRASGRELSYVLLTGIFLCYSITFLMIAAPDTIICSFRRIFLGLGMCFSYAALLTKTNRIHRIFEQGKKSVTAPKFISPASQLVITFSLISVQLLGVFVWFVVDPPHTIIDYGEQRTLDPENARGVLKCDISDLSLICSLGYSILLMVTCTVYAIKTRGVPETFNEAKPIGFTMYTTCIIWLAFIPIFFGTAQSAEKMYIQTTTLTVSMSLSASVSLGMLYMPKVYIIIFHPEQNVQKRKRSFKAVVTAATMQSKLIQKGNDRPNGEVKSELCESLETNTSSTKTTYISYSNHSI
For the compound `Cc1ccc(CN2CCc3c(OCC(=O)Nc4cccc(C)c4C)cccc3C2=O)cc1`, the z-score was -0.0788. For `Cc1c(C(=O)O)oc2c1/C(=N\O)CC(C)(C)C2`, the z-score was -0.491. `CN1C(=O)/C(=C/c2ccccc2OCc2ccc(F)cc2)N(C)C1=S` returned a z-score of -0.221. In the case of `Cc1ccc(C(c2nnnn2Cc2ccccc2)N2CCN(Cc3ccccc3)CC2)cc1` (stereo unspecified), the z-score is -0.168. Take `CNC(=S)NNC(=O)COc1cccc(C)c1C`: the z-score was 0.00116. `O=S(=O)(c1cc(-c2nc3ccccc3s2)ccc1Cl)N1CCOCC1`: the z-score was 0.245. As to `CCCCC(=O)Nc1sc2c(c1C(=O)OCC)CCC(C=O)=C2Cl`, the z-score is -0.1. With `COc1ccc(NC(=O)NC(C)(C(F)(F)F)C(F)(F)F)cc1`, the z-score is 1.63. Compound `O=C(C1CCCN1S(=O)(=O)c1ccc(Cl)cc1)N1CCOCC1` (stereo unspecified) had a z-score of -0.0923. Then `O=C(CSc1nnc(-c2ccccc2)n1-c1ccccc1)c1ccc[nH]1`, with -0.464. The compound `O=C(Oc1ccc2ccccc2c1)c1cncc(Br)c1` returned a z-score of -0.00379. Then `Cc1cccc(Oc2cnn(C(C)(C)C)c(=O)c2Cl)c1`, with -1.25; and `CCN(CC)S(=O)(=O)c1ccc(Cl)c(C(=O)Oc2cccc(-c3cnc4ccccc4n3)c2)c1`, with -0.179; and `N#CC1=C(N)NC(SCc2ccc(F)cc2)=C(C#N)C12CCCCC2`, with -0.126. As to `C/C(=N/Nc1nc(-c2ccccc2)cc(-c2ccc(F)cc2)n1)c1cccc(N)c1`, the z-score is -0.225. `COc1ccc(C(=O)Nc2ccc(N3CCCCC3)cc2)cc1Br` had a z-score of -0.00817. Regarding `CC(C)NC(=O)CC1OC(=O)c2ccccc21` (stereo unspecified), the z-score was 1.29. `FC(F)(F)c1ccc(/C=N/N2CCN(Cc3ccccc3)CC2)cc1` had a z-score of -0.332. Then `CC(C)CCNC(=O)CSc1nc2ccccc2c(=O)[nH]1`, with -0.524; and `O=C(COc1ccc([N+](=O)[O-])cc1)N/N=C/c1ccccn1`, with -0.148. Then `COc1ccc(NC(=O)CSc2nc(N)c(C(=O)Nc3ccc(N(C)C)cc3)s2)cc1`, with -0.404; and `CCOc1ccc(C2=Cc3cc(OC)c(OC)cc3C(=C(Cl)Cl)O2)cc1`, with 0.236; and `Cc1cc(C(=O)NCCCN2CCN(C3CCCCC3)CC2)n(-c2ccccc2)n1`, with -0.136. With `Cc1nc(-c2cccc(NC(=O)c3cccs3)c2)cs1`, the z-score was -1.67.

`Cc1ccc(NC(=S)NC(NC(=O)c2ccccc2C)C(Cl)(Cl)Cl)c(C)c1` (stereo unspecified): the z-score is -0.151. Compound `O=C(CSc1ncnc2c1oc1ccccc12)N1CCCc2ccccc21` came in with a z-score of -0.5. Then `Cn1c(N2CCN(C(=O)NC34CC5CC(CC(C5)C3)C4)CC2)nc2ccccc21`, with -0.317. In the case of `Cc1nnc(SCc2nc3ccccc3nc2C)s1`, the z-score is -0.127.

In the case of `c1ccc(-c2nc(-c3ccncc3)no2)cc1`, the z-score is -0.104. `NS(=O)(=O)c1ccc(N=Cc2ccc(Br)s2)cc1` registered a z-score of 0.29.

`CCN1CCN(CCNC(=O)c2cn(Cc3ccccc3F)nn2)CC1` came in with a z-score of -0.203.

These data come from PubChem BioAssay AID488969 (Vanderbilt High Throughput Screening Facility, 2010).
